# Test results as given in PubChem BioAssay AID1030 (National Center for Advancing Translational Sciences (NCATS), 2008).
# About 16,000 (7.3%) of roughly 220,000 compounds were called active. Inconclusive results, whose numbers are uncertain, are shown with a selection of clear calls. The call rests on the fitted dose curve; in most records, active means well fitted inhibition curve with a large enough effect (not every such curve was filed as active); inconclusive means small, poorly fitted or top-dose-only effect, or another doubt; inactive means no such curve, though single readings can be large or run the other way. Potencies of inconclusive entries are left out as doubtful fits.
# Molecular target: Aldehyde dehydrogenase 1A1 (Homo sapiens) (UniProt P00352)
# Sequence of UniProt P00352 (P00352 whole entry, looked up): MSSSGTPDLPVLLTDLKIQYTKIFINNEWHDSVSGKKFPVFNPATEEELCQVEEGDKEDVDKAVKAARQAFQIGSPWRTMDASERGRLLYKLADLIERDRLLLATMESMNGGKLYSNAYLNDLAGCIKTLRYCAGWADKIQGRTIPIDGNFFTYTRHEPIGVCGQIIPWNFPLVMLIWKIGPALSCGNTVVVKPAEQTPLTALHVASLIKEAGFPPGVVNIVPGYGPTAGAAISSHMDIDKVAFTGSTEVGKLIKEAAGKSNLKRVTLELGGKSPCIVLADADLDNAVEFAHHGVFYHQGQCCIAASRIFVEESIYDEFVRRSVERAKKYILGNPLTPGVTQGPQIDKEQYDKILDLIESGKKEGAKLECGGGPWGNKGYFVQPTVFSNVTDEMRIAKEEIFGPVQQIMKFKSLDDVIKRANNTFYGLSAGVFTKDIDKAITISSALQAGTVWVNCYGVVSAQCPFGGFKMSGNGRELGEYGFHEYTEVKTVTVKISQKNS
# Experiment: qHTS Assay for Inhibitors of Aldehyde Dehydrogenase 1 (ALDH1A1);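 on activity, negative = inhibition: plate controls were no enzyme wells and a reference inhibitor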
# Settings: Purified ALDH1A1, NADH fluorescence, propionaldehyde substrate; series mostly up to 75.3 µM; activity, negative = inhibition: at the top concentration
# Potency means the concentration at half of the fitted maximal effect; tags describe the fitted curve by direction and shape.
SMILES,"activity, negative = inhibition",Potency
CCN(CC)CCN(C(=O)c1ccc(S(=O)(=O)N2CCCCC2)cc1)c1nc2cc3c(cc2s1)OCO3,inactive: -10.2%,
O=C1CCCC(=O)C1=Cc1c[nH]c2ccccc12,,"inconclusive [inhibitor, partial curve]"
N#CCCCCn1c(-c2cncs2)nc2ccccc21,inactive: -6.56%,
Cc1[nH]n(-c2ccccc2)c(=O)c1/C=N/N1C(=O)c2cccc3cccc(c23)C1=O,,"inconclusive [inhibitor, partial curve]"
CCN(CC)C(=O)COc1ccc2oc(-c3ccco3)cc(=O)c2c1,,"inconclusive [inhibitor, partial curve]"
CC(Oc1ccccc1)C(=O)Nc1cccc(-c2nc3ccccc3[nH]2)c1 (stereo unspecified),inactive: 6.94%,
C=CCN(c1ccccc1Cl)S(=O)(=O)c1cccc(C(=O)NCCc2ccc(OC)cc2)c1,,"inconclusive [inhibitor, partial curve]"
Cc1ccc(/C=C2\NC(=S)NC2=O)cc1[N+](=O)[O-],inactive: -9.74%,
Cc1ccc(S(=O)(=O)Nc2cnc3ccccc3c2)cc1,,"inconclusive [inhibitor, single point]"
CCc1nnc(NS(=O)(=O)c2ccc(NC(=S)NC(=O)c3ccc(OC)c(OC)c3)cc2)s1,,active: 7.94 µM
COc1cccc(CNC(=O)c2ccc(S(=O)(=O)N3CCCC3)cc2)c1,,active: 12.6 µM
c1ccc(-n2c(SCc3ccncc3)nnc2-c2ccco2)cc1,,active: 10 µM
N#CC1=C(N)OC2=C(C(=O)CC(c3ccccc3)C2)C1c1ccc2c(c1)OCO2 (stereo unspecified),,active: 11.2 µM
Cc1ccc(S(=O)(=O)CCC(=O)N2CCN(c3ccc(Cl)cc3)CC2)cc1,,"inconclusive [inhibitor, single point]"
Cc1cc(C(=O)N2CCN(S(C)(=O)=O)CC2)sc1-c1ccccc1,inactive: 9.52%,
COc1ccc(C(=O)N(C)Cc2ccccc2)cc1Br,inactive: -3.44%,
CN1CCN(CCCCOc2ccc(F)cc2)CC1,,"inconclusive [inhibitor, single point]"
CC1(C)CC(=O)C2=C(C1)N(C1CCCCC1)C(=O)C2(O)C(F)(F)F (stereo unspecified),,"inconclusive [inhibitor, single point]"
CCOC(=O)c1ccc(-n2c(C)nc3c(cnn3-c3ccccc3C)c2=O)cc1,,"inconclusive [inhibitor, single point]"
S=C(Nc1ccccc1)Nc1nccs1,,"inconclusive [inhibitor, single point]"
Cc1cc(C)c(S(=O)(=O)c2ccccc2C)c(SCC(C)C)n1,,"inconclusive [inhibitor, partial curve]"
CC(C)CC(=O)NC(=S)Nc1ccc(S(=O)(=O)N2CCN(C)CC2)cc1,,"inconclusive [inhibitor, single point]"
C=C(C)CNC(=S)N/N=C1\CCCCc2ccccc21,,"inconclusive [inhibitor, single point]"
COC(=O)c1ccc(NC(=O)CCN2C(=O)CSC2=O)cc1,inactive: -5.16%,
Cc1ccc(OCc2nnc(SCC(=O)c3cccc([N+](=O)[O-])c3)n2C)cc1,,"inconclusive [inhibitor, single point]"
COc1ccc(S(=O)(=O)NCC2CCC(C(=O)NCc3ccco3)CC2)cc1 (stereo unspecified),inactive: 12.6%,

SMILES,"activity, negative = inhibition",Potency
CC(C)C(=O)N1CCN(CCN=CC2=C(O)CC(c3ccco3)CC2=O)CC1 (stereo unspecified),,"inconclusive [inhibitor, single point]"
CCc1c(C)c(C#N)c2nc3ccccc3n2c1Cl,inactive: 8.23%,
O=C(CNC(=O)c1ccc(S(=O)(=O)N2CCCC2)cc1)N/N=C/c1ccccc1Cl,inactive: -6.13%,
COc1ccccc1CNc1nc(-c2cccnc2)nc2ccccc12,,"inconclusive [inhibitor, single point]"
CCc1ccc(C(=O)COC(=O)c2cc([N+](=O)[O-])ccc2NCCO)cc1,,"inconclusive [inhibitor, single point]"
c1ccc(Cn2ncc3c(N4CCCCC4)ncnc32)cc1,,"inconclusive [inhibitor, single point]"
CN1CSC2=C(C#N)C(c3cccc(OCc4ccccc4)c3)CC(=O)N2C1 (stereo unspecified),,active: 7.94 µM
CN1C(=O)c2c(sc3c2CC(C)(C)SC3)N2CCN=C12,,"inconclusive [inhibitor, partial curve]"
COc1ccc(/C=C/C(=O)N2CCCC2)cc1OC,,"inconclusive [inhibitor, single point]"
COc1ccc(OC)c(/C=C/C(=O)N(C)CC(=O)Nc2cc(C)ccc2C)c1,,"inconclusive [inhibitor, partial curve]"
CCNS(=O)(=O)c1ccc(NC(=S)NCC2CCCO2)cc1 (stereo unspecified),,"inconclusive [inhibitor, single point]"
CC(C)NC(=S)N/N=C1\CCCCC1C1CCCCC1 (stereo unspecified),,active: 6.31 µM
CCOC(=O)c1[nH]c2cc(OC)c(OC)cc2c1NC(=O)CN1CCN(c2ccc(OC)cc2)C(C)C1 (stereo unspecified),,"inconclusive [inhibitor, partial curve]"
COc1ccccc1S(=O)(=O)CC(O)COc1ccc(C#N)cc1 (stereo unspecified),inactive: 1%,
Cc1cccc(NC(=S)NC2CCCCCC2)c1C,inactive: -5.59%,
COc1cc2[nH]c(=S)n(C3CCN(Cc4ccccc4)CC3)c(=O)c2cc1OC,inactive: 11.4%,
COc1ccccc1/C=C(/C(=O)OCC(=O)NCc1ccccc1)c1ccccc1,,"inconclusive [inhibitor, full curve]"
CCOCc1c(C(=O)OCC(=O)Nc2ccc(C)c(S(=O)(=O)N(C)C)c2)oc2ccccc12,,"inconclusive [inhibitor, partial curve]"
Cc1ccc2c(c1)nc(-n1nc(C)cc1C)c1nnnn12,inactive: -6.61%,
COc1ccc(-n2ccnc2)cc1,inactive: 1.78%,
CCCCC(c1nnnn1Cc1ccco1)N1CCN(C(=O)c2ccco2)CC1 (stereo unspecified),,active: 14.1 µM
FC(F)(F)c1ccccc1NC(=S)Nc1cccc2cnccc12,,active: 25.1 µM
CC(=O)N1CC2(NC(=O)c3ccccc3N2)c2ccccc21 (stereo unspecified),,"inconclusive [inhibitor, partial curve]"
CCCOc1ccc(N2C(=O)CC(NCCc3ccc(S(N)(=O)=O)cc3)C2=O)cc1 (stereo unspecified),,active: 7.94 µM
O=C(O)/C=C/C(=O)Nc1ccc(Oc2ccc(NC(=O)/C=C/C(=O)O)cc2)cc1,,"inconclusive [inhibitor, single point]"
Nc1c(S(=O)(=O)c2ccccc2)c2nc3ccccc3nc2n1C1CC1,,"inconclusive [inhibitor, partial curve]"

SMILES,"activity, negative = inhibition",Potency
COC(=O)C1(C(=O)OC)CC(CO)C(=O)[C@H]1c1ccccc1 (stereo partly specified),,inactive
CN(NC(=O)c1cccc(Cl)c1)c1nc(-c2ccccc2)nnc1C(F)(F)F,inactive: -0.228%,
Cc1ccc(S(=O)(=O)N(CC(=O)N2CCN(c3ccccc3F)CC2)C2CCCCC2)cc1,,"inconclusive [inhibitor, single point]"
COc1ccc(/C=c2\sc3nc(=O)c(C)nn3c2=O)c(OC)c1,,active: 22.4 µM
COc1ccccc1N1C(=O)CC(Sc2nccc(C)n2)C1=O (stereo unspecified),inactive: 0.447%,
Cc1cccc(C(=O)Nc2cccc(C(=O)N3CCOCC3)c2)c1,inactive: -6.95%,
Cc1cc(-c2nn3c(-c4ccccc4)nnc3s2)c2ccccc2n1,,active: 8.91 µM
CC(C)C(C(=O)OCC(=O)c1ccc2c(c1)NC(=O)CO2)N1C(=O)c2ccccc2C1=O (stereo unspecified),inactive: -4.06%,
NS(=O)(=O)c1ccc(CCNC(=O)CCCn2c(SCC(=O)N3CCCC3)nc3ccsc3c2=O)cc1,inactive: -6.33%,
CCOC(=O)N1CCC(NC(=O)C(Cc2ccccc2)NC(=O)C2CCCCC2)CC1 (stereo unspecified),inactive: -8.5%,
Cc1cc(C)n2cc(CSc3ccccn3)nc2n1,,"inconclusive [inhibitor, partial curve]"
COCCNC(=O)CN1c2ccccc2CC1C (stereo unspecified),,"inconclusive [inhibitor, single point]"
Cc1onc(-c2c(F)cccc2Cl)c1C(=O)OCC(=O)c1c(N)n(C)c(=O)n(C)c1=O,inactive: -5.62%,
O=C(CN(C(=O)c1ccccc1Cl)N1C(=O)C2C3C=CC(C3)C2C1=O)c1cccs1 (stereo unspecified),inactive: -7.77%,
Cn1c(C(=O)N2CCCC(C(=O)NCc3cccs3)C2)cc2sccc21 (stereo unspecified),,"inconclusive [inhibitor, partial curve]"
Cc1ccc(Cl)c(NC(=O)CCl)c1Cl,,"inconclusive [inhibitor, single point]"
CCCCNC(=O)C(Sc1ccccc1)c1ccccc1 (stereo unspecified),inactive: -2.11%,
CC(=O)C1=C(C)NC(SCc2ccc(C#N)cc2)=C(C#N)C1c1ccco1 (stereo unspecified),,active: 22.4 µM
CC(=O)Nc1ccc(NC(=O)Cn2cc3c(n2)CCC(C)C3)cc1 (stereo unspecified),,"inconclusive [inhibitor, single point]"
COc1ccc(C(=O)Nc2ccc(C)c(S(=O)(=O)N3CCCCCC3)c2)cc1,,"inconclusive [inhibitor, single point]"
O=C(Nc1ccc(N2CCCC2)c(Cl)c1)c1ccc([N+](=O)[O-])o1,,active: 3.55 µM
Cc1ccc(C(=O)CSc2cnc3ccccc3n2)cc1C,,active: 22.4 µM
COc1ccc(CCn2c(N)c(C#N)c3nc4ccccc4nc32)cc1OC,,"inconclusive [inhibitor, partial curve]"
CCCn1c(SCC(=O)Nc2ccccc2Oc2ccccc2)n[nH]c1=O,,"inconclusive [inhibitor, partial curve, poor fit]"
